According to PubChem BioAssay (NCI):
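Each compound was tested at five concentrations against cells in 96-well plates for 48 hours. The concentration for 50% growth inhibition is given as GI50.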 The source holds more than one record for some entries. They are shown here; other results are not. An entry can have further records. A record mostly stands for its own series of concentrations, which the source does not state; a value can be the end of its range.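 TGI is the concentration that stops growth completely.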

Legend:
Experiment in all cases: DTP human tumour cell line panel, 48 h
LOX IMVI melanoma = tested on: LOX IMVI melanoma
ACHN renal = tested on: ACHN renal
KM12 colon = tested on: KM12 colon
A498 renal = tested on: A498 renal
SN12C renal = tested on: SN12C renal
HS 578T breast = tested on: HS 578T breast
TK-10 renal = tested on: TK-10 renal
HCT-116 colon = tested on: HCT-116 colon
HT29 colon = tested on: HT29 colon
HOP-62 NSCLC = tested on: HOP-62 NSCLC
PC-3 prostate = tested on: PC-3 prostate
HOP-92 NSCLC = tested on: HOP-92 NSCLC
UACC-257 melanoma = tested on: UACC-257 melanoma
SNB-19 CNS = tested on: SNB-19 CNS
MDA-MB-435 = tested on: MDA-MB-435
SNB-75 CNS = tested on: SNB-75 CNS
IGROV1 ovarian = tested on: IGROV1 ovarian
OVCAR-5 ovarian = tested on: OVCAR-5 ovarian
EKVX NSCLC = tested on: EKVX NSCLC
NCI-H522 lung = tested on: NCI-H522 lung
RPMI-8226 leukemia = tested on: RPMI-8226 leukemia
DU-145 prostate = tested on: DU-145 prostate
COLO 205 colon = tested on: COLO 205 colon
SF-268 CNS = tested on: SF-268 CNS
NCI-H460 lung = tested on: NCI-H460 lung
UO-31 renal = tested on: UO-31 renal
A549 NSCLC = tested on: A549 NSCLC
U251 CNS = tested on: U251 CNS
OVCAR-8 ovarian = tested on: OVCAR-8 ovarian
SW-620 colon = tested on: SW-620 colon
MDA-MB-231 breast = tested on: MDA-MB-231 breast
SF-295 CNS = tested on: SF-295 CNS
SK-MEL-28 melanoma = tested on: SK-MEL-28 melanoma
786-0 renal = tested on: 786-0 renal
OVCAR-3 ovarian = tested on: OVCAR-3 ovarian
NCI-H23 lung = tested on: NCI-H23 lung
MALME-3M melanoma = tested on: MALME-3M melanoma
SK-MEL-5 melanoma = tested on: SK-MEL-5 melanoma
HCC-2998 colon = tested on: HCC-2998 colon
OVCAR-4 ovarian = tested on: OVCAR-4 ovarian
MOLT-4 leukemia = tested on: MOLT-4 leukemia
BT-549 breast = tested on: BT-549 breast
HCT-15 colon = tested on: HCT-15 colon
NCI-H226 lung = tested on: NCI-H226 lung

COC(=O)[C@H](Cc1ccccc1)NNC(=O)c1csc([C@@H](C[C@H](C(C)C)N(C)C(=O)[C@@H](NC(=O)[C@H]2CCCCN2C)C2CC2)OC(C)=O)n1
GI50 (LOX IMVI melanoma): 17.2 nM, 2.5 nM, 53.8 nM | GI50 (ACHN renal): 64.9 nM, 2.5 nM, 168 nM | GI50 (KM12 colon): 56.3 nM, 2.5 nM, 469 nM | GI50 (A498 renal): 8.76 nM, 2.5 nM, 590 nM | TGI (A498 renal): 205 nM, 11.5 µM, > 100 µM | GI50 (SN12C renal): 8.33 nM, 2.5 nM, 62.7 nM | GI50 (HS 578T breast): 4.94 nM and 82.7 nM | GI50 (TK-10 renal): 2.5 nM and > 100 µM | GI50 (HCT-116 colon): 31.2 nM, 2.5 nM, 39.1 nM | GI50 (HT29 colon): 13.6 nM, 2.5 nM, 49.6 nM | GI50 (HOP-62 NSCLC): 37.4 nM, 2.5 nM, 74.1 nM | GI50 (PC-3 prostate): 29.4 nM, 2.5 nM, 123 nM | GI50 (HOP-92 NSCLC): 14.2 nM, 2.5 nM, 736 nM | TGI (HOP-92 NSCLC): 717 nM, 25 µM, > 100 µM | GI50 (UACC-257 melanoma): 280 nM, > 25 µM, 28.3 µM | GI50 (SNB-19 CNS): 32.5 nM, > 25 µM, 69.6 nM | TGI (MDA-MB-435): 17.7 nM and 1.16 µM | GI50 (SNB-75 CNS): 2.99 nM, 2.5 nM, 34.8 nM | TGI (SNB-75 CNS): 71.5 nM, 25 µM, > 100 µM | GI50 (IGROV1 ovarian): 6.12 nM, 2.5 nM, 50.7 nM | GI50 (OVCAR-5 ovarian): 298 nM, 2.5 nM, 5.08 µM | GI50 (EKVX NSCLC): 61.9 nM and 831 nM | TGI (NCI-H522 lung): 32.4 nM and 24.7 µM | GI50 (RPMI-8226 leukemia): 3.61 nM, 2.5 nM, 31.3 nM | GI50 (DU-145 prostate): 5.47 nM, 2.5 nM, 38.8 nM | GI50 (COLO 205 colon): 10 nM, 2.5 nM, 39.6 nM | TGI (COLO 205 colon): 162 nM, 40.2 nM, 1.06 µM | GI50 (SF-268 CNS): 73.8 nM, 2.5 nM, 326 nM | GI50 (NCI-H460 lung): 25.5 nM, 2.5 nM, 54.7 nM | GI50 (UO-31 renal): 156 nM, 2.5 nM, 639 nM | GI50 (A549 NSCLC): 91.6 nM, 2.5 nM, 416 nM | GI50 (U251 CNS): 28.7 nM, 2.5 nM, 219 nM | GI50 (OVCAR-8 ovarian): 32.7 nM, 2.5 nM, 60.2 nM | GI50 (SW-620 colon): 6.76 nM, 2.5 nM, 36.1 nM | GI50 (MDA-MB-231 breast): 32.6 nM, 2.5 nM, 180 nM | TGI (MDA-MB-231 breast): 672 nM and > 100 µM | GI50 (SF-295 CNS): 51.6 nM, 2.5 nM, 342 nM | GI50 (SK-MEL-28 melanoma): 204 nM, 2.5 nM, 2.73 µM | GI50 (786-0 renal): 45 nM, 2.5 nM, 568 nM | TGI (OVCAR-3 ovarian): 10.2 nM and 2.09 µM | GI50 (NCI-H23 lung): 51.8 nM, 2.5 nM, 588 nM | GI50 (MALME-3M melanoma): 68.8 nM and > 100 µM | GI50 (SK-MEL-5 melanoma): 7.65 nM, 2.5 nM, 29.9 nM | GI50 (HCC-2998 colon): 99.2 nM, 2.5 nM, 6.7 µM | GI50 (OVCAR-4 ovarian): 72 nM, 465 nM, 6.62 µM | GI50 (MOLT-4 leukemia): 4.62 nM, 2.5 nM, 35 nM | GI50 (BT-549 breast): 8.3 nM, 2.5 nM, 41.7 nM | GI50 (HCT-15 colon): 189 nM, 2.5 nM, 1.05 µM | GI50 (NCI-H226 lung): 101 nM and > 100 µM
